# This is one part of the list. Repeats are few or missing, and single values can be far off.
# Legend:
# Assay in all cases: cell count relative to DMSO control; melanoma cells; higher = more viable cells
# Settings in all cases: library dose: standard library concentration; 72 h
# [1] = test system: G361
# [2] = test system: IPC-298
# [3] = test system: IST-MEL1
# [4] = test system: LB2518-MEL
# [5] = test system: LOXIMVI
# [6] = test system: MEL-HO
# [7] = test system: MZ2-MEL
# [8] = test system: MeWo
# [9] = test system: RPMI7951
# [10] = test system: RVH-421
# 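Also: cells treated in 1,536-well plates, then fixed and DAPI-stained, with nuclei counted from automated high-throughput microscope images.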
SMILES,cell count [1],cell count [2],cell count [3],cell count [4],cell count [5],cell count [6],cell count [7],cell count [8],cell count [9],cell count [10]
"Cc1nc(Nc2ncc(C(=O)Nc3c(C)cccc3Cl)s2)cc(N2CCN(CCO)CC2)n1 [dasatanib] + Cc1ccc(NC(=O)c2cccc(N(C)C)c2)cc1NC(=O)c1ccc(O)cc1 [ZM336372] (first compound 0.02 µM, partner dose 10 µM)",80.5%,112%,65.2%,85.4%,8.06%,100%,79.2%,86%,44.2%,76.6%
"C[C@]1(c2nc3c(C(N)=O)cccc3[nH]2)CCCN1 [Veliparib] + CC(C)(C)c1cnc(CSc2cnc(NC(=O)C3CCNCC3)s2)o1 [SNS-032] (first compound 7 µM, partner dose 0.05 µM)",102%,110%,79.9%,61.5%,54.8%,83.6%,85.5%,88.4%,62.5%,80.1%
"NC(=O)Nc1cc(-c2cccc(F)c2)sc1C(=O)N[C@H]1CCCNC1 + O=C(Nc1ccccc1)c1cc([N+](=O)[O-])ccc1Cl [GW9662] (first compound 0.1 µM, partner dose 10 µM)",93%,83%,91.4%,86.5%,92%,72.4%,77.7%,67.9%,46.5%,79.4%
"C=CCn1c(=O)c2cnc(Nc3ccc(N4CCN(C)CC4)cc3)nc2n1-c1cccc(C(C)(C)O)n1 + NCC(=O)Nc1ccc(-n2nc(C(F)(F)F)cc2-c2ccc3c(ccc4ccccc43)c2)cc1 [OSU03012] (first compound 0.1 µM, partner dose 5 µM)",56.4%,43.9%,90.3%,59.3%,73.4%,82.8%,101%,83.4%,47.7%,79.1%
"NC(=O)Nc1cc(-c2cccc(F)c2)sc1C(=O)N[C@H]1CCCNC1 + COc1cc(N2CCC(N3CCN(C)CC3)CC2)ccc1Nc1ncc(Cl)c(Nc2ccccc2S(=O)(=O)C(C)C)n1 [NVP-TAE684] (first compound 0.1 µM, partner dose 0.4 µM)",93.1%,84.6%,111%,75.2%,71.5%,80.2%,94.8%,69.6%,36.2%,91%
"C[C@]1(c2nc3c(C(N)=O)cccc3[nH]2)CCCN1 [Veliparib] + CN(C)S(=O)(=O)c1ccc2c(c1)/C(=C/c1cc3c([nH]1)CCCC3)C(=O)N2 [SU6656] (first compound 7 µM, partner dose 2 µM)",70.4%,79.6%,73.6%,70.9%,102%,88%,85.3%,74.3%,49%,104%
"NC(=O)Nc1cc(-c2cccc(F)c2)sc1C(=O)N[C@H]1CCCNC1 + O=c1cc(-c2cccc3c2Sc2ccccc2S3)oc(N2CCOCC2)c1 [KU55933] (first compound 0.1 µM, partner dose 5 µM)",78.8%,92.4%,92.5%,68.1%,77.1%,73.4%,96.1%,98.3%,49.8%,296%
"NCC(=O)Nc1ccc(-n2nc(C(F)(F)F)cc2-c2ccc3c(ccc4ccccc43)c2)cc1 + CCCCCCCCCCCC1=C(O)C(=O)C=C(O)C1=O [Embelin] (first compound 5 µM, partner dose 6 µM)",57.8%,48%,69.1%,64.2%,123%,80.8%,82%,88.4%,79.3%,64.9%
"CN(C)S(=O)(=O)c1ccc2c(c1)/C(=C/c1cc3c([nH]1)CCCC3)C(=O)N2 + CN(NC(=O)CC(=O)NN(C)C(=S)c1ccccc1)C(=S)c1ccccc1 [STA4783] (first compound 2 µM, partner dose 0.03 µM)",29.8%,50.6%,42.7%,31.2%,92%,81.7%,96.5%,21.8%,79.4%,86.1%
"CN(C)S(=O)(=O)c1ccc2c(c1)/C(=C/c1cc3c([nH]1)CCCC3)C(=O)N2 + COc1cc(N2CCC(N3CCN(C)CC3)CC2)ccc1Nc1ncc(Cl)c(Nc2ccccc2S(=O)(=O)C(C)C)n1 [NVP-TAE684] (first compound 2 µM, partner dose 0.4 µM)",78.7%,70.2%,83.1%,74.3%,211%,75.9%,57.8%,59%,33.7%,63.3%
"CN(C)S(=O)(=O)c1ccc2c(c1)/C(=C/c1cc3c([nH]1)CCCC3)C(=O)N2 + O=S(=O)(c1ccccc1)N(CC(F)(F)F)c1ccc(C(O)(C(F)(F)F)C(F)(F)F)cc1 [T0901317] (first compound 2 µM, partner dose 7 µM)",49.5%,51.6%,79.6%,78%,112%,80.3%,73.7%,68.2%,46.4%,70.8%
